This passage reports amyloid nucleation score results from the supplement of paper PMC12067230.

The data scatter; read single values as rough.
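Note: [psi-pin-] Saccharomyces cerevisiae expressing SupN fusions, induced by 100 µM Cu2SO4, selected 7 d at 30 °C without adenine and uracil, scored by deep sequencing of output versus input.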

The first data set can be described thus: amyloid nucleation score relative to library mode (yeast Sup35 reporter selection) (log enrichment difference); higher = more amyloid nucleation; sequences are the first 22 residues of the Bri2 peptide extended by up to 12 random residues. Particulars: random library (experiment): 1;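 active = nucleation score significantly above 0 at FDR 0.05; inactive = not significantly above 0 or absent from output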.
Regarding EASNCFAIRHFENKFAVETLICVRRPIKMAPWLG, the amyloid nucleation score result was “inactive”.
Still for that read-out and setting: the result for EASNCFAIRHFENKFAVETLICVRRPSLTTTGAQ reads “inactive”; that for EASNCFAIRHFENKFAVETLICVRRSRLGGLPVR, “inactive”.
Turning to EASNCFAIRHFENKFAVETLICVRRSRRGPCVCE, the amyloid nucleation score result was “inactive”.
Same read-out and setting: the result for EASNCFAIRHFENKFAVETLICVRSARPL reads “inactive”; that for EASNCFAIRHFENKFAVETLICVRSCLGWVVGGW, 1.31.
For EASNCFAIRHFENKFAVETLICVRSDGGQRCSMW, the amyloid nucleation score was determined as 4.29.
Consider EASNCFAIRHFENKFAVETLICVRSIRYRLWPHV, for which the amyloid nucleation score entry is “inactive”.
EASNCFAIRHFENKFAVETLICVRSLTILWFPLT: the amyloid nucleation score entry is “inactive”.
For EASNCFAIRHFENKFAVETLICVRSMR, the amyloid nucleation score worked out at 1.89.
The same measure, in the same setting: the result for EASNCFAIRHFENKFAVETLICVRSRGLAPRWLS reads 0.655; that for EASNCFAIRHFENKFAVETLICVRSRRQPAQLVR, “inactive”.
The sequence EASNCFAIRHFENKFAVETLICVRSSTKNDTPLV returned an amyloid nucleation score of 0.165.
EASNCFAIRHFENKFAVETLICVRTGALHGALG returned an amyloid nucleation score of -0.258.
EASNCFAIRHFENKFAVETLICVRTGMWGSGLLR: the amyloid nucleation score entry is “inactive”.
For the sequence EASNCFAIRHFENKFAVETLICVRTR, the amyloid nucleation score entry is “inactive”.
On the same count and under the same terms, the result for EASNCFAIRHFENKFAVETLICVRTRCGNVGWSC reads “inactive”; that for EASNCFAIRHFENKFAVETLICVRTTYLRMSCTG, “inactive”.
For EASNCFAIRHFENKFAVETLICVRVKVTRPAKCG, the amyloid nucleation score result is “inactive”.
The same measure, in the same setting: the result for EASNCFAIRHFENKFAVETLICVRVQLLCGSR reads 2.74.
Same read-out and setting: the value for EASNCFAIRHFENKFAVETLICVRVTRSWTCVY was 4.05.
Still for that read-out and setting: the result for EASNCFAIRHFENKFAVETLICVRVWPHLYGTSR reads “inactive”; that for EASNCFAIRHFENKFAVETLICVRWFC, 5.92; that for EASNCFAIRHFENKFAVETLICVRWGLNSRRGMR, “inactive”.
EASNCFAIRHFENKFAVETLICVRYRATCVDLAV: the amyloid nucleation score entry was “inactive”.
Still for that read-out and setting: the result for EASNCFAIRHFENKFAVETLICVRYWHSRGSKRG reads “inactive”.
Still for that read-out and setting: the result for EASNCFAIRHFENKFAVETLICVS reads 1.8; that for EASNCFAIRHFENKFAVETLICVSA, “inactive”.
The same measure, in the same setting: the result for EASNCFAIRHFENKFAVETLICVSAFTVNSRFRC reads “inactive”.
EASNCFAIRHFENKFAVETLICVSAHICDTDVQT showed an amyloid nucleation score of 4.93.
EASNCFAIRHFENKFAVETLICVSARWCFGAAES showed an amyloid nucleation score of 4.18.
Consider EASNCFAIRHFENKFAVETLICVSAVLCSFDAE, for which the amyloid nucleation score was 4.97.
The same measure, in the same setting: the result for EASNCFAIRHFENKFAVETLICVSDPRAGFRPRI reads 2.52; that for EASNCFAIRHFENKFAVETLICVSECVT, “inactive”.
On the same count and under the same terms, the value for EASNCFAIRHFENKFAVETLICVSERLKHFVGVG was “inactive”; that for EASNCFAIRHFENKFAVETLICVSFGTLFKSDKT was 8.26; that for EASNCFAIRHFENKFAVETLICVSFVSLVASTGN was 3.25.
Same read-out and setting: the value for EASNCFAIRHFENKFAVETLICVSG was “inactive”; that for EASNCFAIRHFENKFAVETLICVSGEMAMLGSWP was “inactive”; that for EASNCFAIRHFENKFAVETLICVSGHAYEHYRGS was “inactive”.
On to EASNCFAIRHFENKFAVETLICVSGRVQNGPLSR, for which the amyloid nucleation score result was “inactive”.
For EASNCFAIRHFENKFAVETLICVSHRNLRVGIMP, the amyloid nucleation score result is “inactive”.
Same read-out and setting: the value for EASNCFAIRHFENKFAVETLICVSHSRLIMCPRL was “inactive”.

Still in this data set, the particulars now being: random library (experiment): 2.
In turn, EASNCFAIRHFENKFAVETLICVRRPSASSSFNW yielded an amyloid nucleation score of 0.533.
Still for that read-out and setting: the result for EASNCFAIRHFENKFAVETLICVRRY reads “inactive”; that for EASNCFAIRHFENKFAVETLICVRRYSYLRLSDV, “inactive”; that for EASNCFAIRHFENKFAVETLICVRSWWTLLMISF, -0.215.
For the sequence EASNCFAIRHFENKFAVETLICVRSYYSTSCRG, the amyloid nucleation score result is “inactive”.
The same measure, in the same setting: the value for EASNCFAIRHFENKFAVETLICVRTIWCTFLSSV was “inactive”.
Turning to EASNCFAIRHFENKFAVETLICVRV, the amyloid nucleation score entry is “inactive”.
The same measure, in the same setting: the value for EASNCFAIRHFENKFAVETLICVRVQSLSDNQAW was “inactive”.
In turn, EASNCFAIRHFENKFAVETLICVRVSLSCMMCTH came in with an amyloid nucleation score of 7.88.
On the same count and under the same terms, the result for EASNCFAIRHFENKFAVETLICVRVYHGVGVC reads “inactive”; that for EASNCFAIRHFENKFAVETLICVRVYSPWICGGW, 4.34; that for EASNCFAIRHFENKFAVETLICVRWSRCPTACQV, “inactive”.
For EASNCFAIRHFENKFAVETLICVRYCCKIIKTRC, the amyloid nucleation score result was “inactive”.
Same read-out and setting: the value for EASNCFAIRHFENKFAVETLICVRYFSNRSLTQE was 1.87; that for EASNCFAIRHFENKFAVETLICVSAGKLNDNFGH was “inactive”; that for EASNCFAIRHFENKFAVETLICVSAI was “inactive”.
Consider EASNCFAIRHFENKFAVETLICVSAPYVWFMYYW, for which the amyloid nucleation score entry is “inactive”.
Still for that read-out and setting: the value for EASNCFAIRHFENKFAVETLICVSARDCDTLPDS was “inactive”; that for EASNCFAIRHFENKFAVETLICVSCATFTGTSRS was 9.96; that for EASNCFAIRHFENKFAVETLICVSCVSG was 6.13.
Consider EASNCFAIRHFENKFAVETLICVSDC, for which the amyloid nucleation score entry was “inactive”.
As to EASNCFAIRHFENKFAVETLICVSDF, the amyloid nucleation score worked out at 3.73.
Still for that read-out and setting: the value for EASNCFAIRHFENKFAVETLICVSDRW was 1.22; that for EASNCFAIRHFENKFAVETLICVSECVQRLGTVS was “inactive”.
As for EASNCFAIRHFENKFAVETLICVSEGGAVPNGLG, the amyloid nucleation score was -0.0198.
Same read-out and setting: the value for EASNCFAIRHFENKFAVETLICVSFCNMKINLWM was 5.55.
The same measure, in the same setting: the result for EASNCFAIRHFENKFAVETLICVSFIRWSYTLYG reads “inactive”.
Still for that read-out and setting: the value for EASNCFAIRHFENKFAVETLICVSFMGSVTVSLS was 0.806; that for EASNCFAIRHFENKFAVETLICVSFSSISVNLLK was 0.627; that for EASNCFAIRHFENKFAVETLICVSFVYFFDRIRV was 2.34.
As to EASNCFAIRHFENKFAVETLICVSGGMGPERHQV, the amyloid nucleation score entry was “inactive”.
On the same count and under the same terms, the result for EASNCFAIRHFENKFAVETLICVSGSYLGAKMGE reads 3.11.

The data set is the same for the next values; noted with them: random library (experiment): 3.
For EASNCFAIRHFENKFAVETLICVRRPGACPWVVC, the amyloid nucleation score worked out at 1.11.
Turning to EASNCFAIRHFENKFAVETLICVRRVF, the amyloid nucleation score entry was “inactive”.
As to EASNCFAIRHFENKFAVETLICVRRVLLWYVLCP, the amyloid nucleation score entry was “inactive”.
EASNCFAIRHFENKFAVETLICVRSGPSSWSLPG returned an amyloid nucleation score of 2.59.
Still for that read-out and setting: the result for EASNCFAIRHFENKFAVETLICVRSLHQEGVRRW reads 3.86; that for EASNCFAIRHFENKFAVETLICVRTSDFVGNLHR, 1.11; that for EASNCFAIRHFENKFAVETLICVRVM, 0.461.
Take EASNCFAIRHFENKFAVETLICVRVSMECSKCEL: the amyloid nucleation score result is “inactive”.
The same measure, in the same setting: the result for EASNCFAIRHFENKFAVETLICVRWFGLGPFIGW reads “inactive”.
EASNCFAIRHFENKFAVETLICVRYKVCL: the amyloid nucleation score was 3.82.
Same read-out and setting: the result for EASNCFAIRHFENKFAVETLICVRYLSAVGFMLH reads “inactive”.
As for EASNCFAIRHFENKFAVETLICVSAMGAWASRRW, the amyloid nucleation score result is “inactive”.
The same measure, in the same setting: the result for EASNCFAIRHFENKFAVETLICVSAPI reads “inactive”; that for EASNCFAIRHFENKFAVETLICVSARFSWFSVWN, “inactive”.
With EASNCFAIRHFENKFAVETLICVSASISPFVVIR, the amyloid nucleation score result is “inactive”.
EASNCFAIRHFENKFAVETLICVSDAMWVLLEDQ: the amyloid nucleation score entry was “inactive”.
On the same count and under the same terms, the value for EASNCFAIRHFENKFAVETLICVSDIWIRPQVVL was “inactive”.
Same read-out and setting: the value for EASNCFAIRHFENKFAVETLICVSDLRMCELMSA was “inactive”; that for EASNCFAIRHFENKFAVETLICVSDYVLHKLVVR was “inactive”; that for EASNCFAIRHFENKFAVETLICVSEASRKVRMLD was “inactive”.
Same read-out and setting: the value for EASNCFAIRHFENKFAVETLICVSEVLCPEYILV was “inactive”.
For EASNCFAIRHFENKFAVETLICVSFLIVFGLVNV, the amyloid nucleation score entry is “inactive”.
On the same count and under the same terms, the value for EASNCFAIRHFENKFAVETLICVSGGWDSLGRRV was “inactive”.
On the same count and under the same terms, the result for EASNCFAIRHFENKFAVETLICVSGPVVLGVSLS reads 6.07; that for EASNCFAIRHFENKFAVETLICVSGVGRWVARLA, “inactive”.
Still for that read-out and setting: the result for EASNCFAIRHFENKFAVETLICVSHCNVSGGIMW reads 6.8.
As for EASNCFAIRHFENKFAVETLICVSHGISFRVS, the amyloid nucleation score result is “inactive”.
Same read-out and setting: the result for EASNCFAIRHFENKFAVETLICVSIFYEHNWSAL reads 3.86.
